Results: the supplement of paper PMC3334620
Whole data set: some 33,000 sequences, median “E-score (-0.5 to 0.5)” near -0.017, cut for the highest 2% near 0.3. Some of the results follow.

target: T1, Sut1 (UniProt P53032); experiment: PBM E-score (8-mer binding enrichment) (E-score (-0.5 to 0.5)); higher = stronger / more preferred TF binding; most listed sequences are background and not binding sites; conditions: protein concentration: 200 nM; construct: GST-full length
T1 sequence: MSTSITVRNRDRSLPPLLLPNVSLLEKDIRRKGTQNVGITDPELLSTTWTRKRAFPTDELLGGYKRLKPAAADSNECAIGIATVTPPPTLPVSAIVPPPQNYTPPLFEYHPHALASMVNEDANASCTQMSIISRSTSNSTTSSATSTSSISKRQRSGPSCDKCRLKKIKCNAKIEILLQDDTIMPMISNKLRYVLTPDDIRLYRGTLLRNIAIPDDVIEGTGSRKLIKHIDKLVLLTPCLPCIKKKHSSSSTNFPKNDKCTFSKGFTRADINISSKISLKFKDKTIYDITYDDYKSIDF
In short: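 Universal all-10-mer Agilent arrays, fresh or stripped once, were converted to double-stranded form by primer extension. GST-tagged yeast transcription factors from PURExpress in vitro transcription/translation, full-length or DNA-binding domain only, were applied at about 100-200 nM and detected with fluorescent anti-GST. After masliner normalisation, the Universal PBM Analysis Suite scored each ungapped eight-base word together with its reverse complement by E-score.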

Sequence | PBM E-score
CTGGCAAC | -0.199
ATAACACA | 0.192
ATTGTTGA | 0.0975
AAGTAGTG | -0.0875
ATGCAAGC | -0.0207
AGGTAGCC | -0.166
GAAGCAGC | -0.214
CATATTGC | -0.0751
CATCGGCC | -0.23
CATGATGG | -0.193
ACAGCCTG | -0.0779
CGGCACAC | -0.0257
ATTTATAA | 0.287
ACGCTACT | -0.00433
AGATCATC | 0.0227
CAGGCAGC | -0.109
ATCTAATC | 0.175
CTAGTAAG | 0.00245
ACAGAAGG | -0.236
CTTGAGTA | 0.281
ATACTCTG | 0.012
ATAGTTGA | 0.145
AAGGAGAA | 0.191
CCGGATGC | 0.0378
CTTGATTC | 0.119

Sequence | PBM E-score
ACCCAACA | -0.0229
ACGAAGAG | 0.0228
AGAGCTAA | -0.0187
TCCATCCA | 0.0381
ACGATGTG | 0.00635
TCCTTCAA | 0.0631
CATTCTCC | 0.118
AGCTACGA | -0.177
CTCAGCCC | -0.262
AAGGCGGG | -0.3
GTCGCTCA | -0.0724
TCTGTACA | 0.0985
CCTAGTCC | 0.0512
AGATCTGA | -0.0761
ACGCGTCG | 0.174
CGATTTTC | 0.12
CGCGTGTA | -0.182
CCTCTGCG | -0.28
AGTATTGA | 0.156
AAACGACA | 0.0123
ACGTAAAG | 0.0512
GATAGATA | 0.275
GATCAGGA | -0.208
ACAGGACT | 0.0143
AAGATGGT | 0.102

Sequence | PBM E-score
GATTGCAC | -0.00335
CGAATTGA | 0.0462
AAGGAACT | 0.0597
ACATATAG | 0.195
TGTGAAAA | 0.107
CTCCACCC | -0.251
GACGCGCA | -0.147
AATGACGC | -0.0673
TATCATAA | 0.251
CGAACCGC | -0.0422
CGACGCGC | -0.0381
ATCGAGAG | -0.0241
AGTGAGCA | -0.0201
AGGGGTAA | -0.227
AACCGGGG | -0.0138
AACACCGG | 0.301
CGAGGCGC | -0.0368
CTCTGGGC | -0.223
GCCTTAAC | -0.238
CCTGTAGC | -0.126
AGAGCGTA | -0.104
CTTGTGCA | -0.0845
ACCCTACC | -0.18
TACGATGA | 0.0667
CCACTGAC | -0.292

Sequence | PBM E-score
GATATCAC | 0.0839
CGTTGCAC | 0.0224
AATTCGAC | -0.119
ACAGTTCG | 0.183
CGCACCGA | -0.217
CCGTTTCG | 0.00854
TGGACAAA | 0.0225
CGAAGGAC | -0.0276
ACAAGCTC | -0.00237
CACTGTCG | -0.228
GGCCAGCC | -0.235
GGACTGAC | -0.0915
ATCTCCAT | 0.00346
AATTTGAG | 0.0282
AATCAGAA | 0.0523
TTTGAAAA | 0.31
ATTTATTA | 0.269
GACTAGTA | -0.045
ACCCCCCG | -0.0942
ACTATTTC | 0.193
GCGGTCCC | -0.105
TCTCTACA | 0.0562
ATGAAAGC | 0.0767
AGGCACGA | -0.139
TTAGGGAA | 0.00499

Sequence | PBM E-score
CAGAGAAC | -0.299
CCTCGATA | 0.0539
GCTTCCTA | 0.11
AACAAACG | 0.0823
AGTCTGGA | -0.129
GACTGCCA | -0.0599
GCCGCCCA | -0.207
ACGTGCCC | -0.239
AATGAAGG | 0.0157
AGTCAAAG | 0.135
ACGCACAA | -0.118
CGGATTAC | 0.0105
CACGCCTA | -0.223
CCTAGAGC | -0.164
CGTTGGAG | -0.201
GTTTCACA | 0.0631
GGCTTTCA | 0.0417
CAGATTTC | 0.00522
ACAGTTTA | 0.136
GGGGATAC | -0.178
GAGCACCC | -0.213
CAAGTCAC | -0.0175
CGCAACGC | -2e-05
GCGCACAC | -0.289
GTCAGGGA | -0.218

Sequence | PBM E-score
TACGGATA | 0.178
AGCATAAC | 0.0165
GCTCGGTA | 0.0843
ATTGACTC | 0.158
ATGTTCGA | -0.0617
ACGTCCTC | -0.0827
AGATACGC | -0.11
CAAAATAA | 0.201
ATTCTACC | 0.0903
GATGACCA | -0.0114
ATCTGAGA | -0.102
CACATATC | 0.0454
CGACTGGC | -0.0636
ATACAAGC | -0.00335
CAGGGTGG | -0.271
CTGTTGAC | -0.168
ACATGTGA | 0.076
ACTTTATA | 0.242
CGACCTAG | -0.066
AATACACC | 0.154
AGGAATGG | -0.156
GATCATAC | -0.0286
AGACTTCC | -0.233
CTTTGTCA | 0.0177
ACCGCAAG | -0.0139

Sequence | PBM E-score
ATAACGTC | -0.0614
GCGCTTCC | -0.0879
GCTTGAAA | 0.0768
TCGCTTCA | 0.0692
GCCCCAAA | -0.181
GGCAGACA | -0.215
CTGAGTAC | -0.0624
GCTCGGCA | -0.0858
CGTCTAAA | -0.0444
CCGGCATA | 0.027
CAATCTAC | -0.0848
GGTGCGAC | -0.193
CCAGATAC | 0.0631
GCTCAATA | -0.00174
AGTTCAAA | 0.233
AACCCTAT | -0.0821
AGGCCTAG | -0.193
CAGAATAA | 0.0737
CTGCAGAC | -0.0823
ATAAATAG | 0.295
GCATTATA | 0.118
AAGTTCGC | -0.0687
ACTGCCCC | -0.282
GGAATGAA | 0.166
AAGTACAT | 0.142

Sequence | PBM E-score
TCAGTAGA | -0.0236
TCCTGTCA | -0.00798
CTAGGAAG | -0.0495
CACCCGTG | -0.228
CGTGGTTC | -0.00828
AATTCCCC | 0.022
CTTTAGAC | 0.00347
GTCTATTA | -0.0459
ACTCGCAG | -0.117
TTATAAAA | 0.314
GAACTGTC | 0.00324
CGAACTCG | -0.0661
AGGCGATG | -0.165
GAGAGGAC | -0.105
CCTCAGCA | -0.395
CCGTCGTA | -0.104
CCTTAGAG | -0.27
TCTACTCA | 0.107
AACTCCCC | -0.0339
CCTATTCA | -0.0075
CACTTGGC | -0.162
CCGTAATC | 0.0754
AAGACCCT | -0.219
AAGGACCC | -0.188
ACGAGATA | -0.0793

Sequence | PBM E-score
GAAAATCC | 0.111
GTATGGAC | 0.0997
GGATATCA | -0.0876
GCGCACGA | -0.0416
TCTCCACA | -0.0497
CACTGCGG | 0.0495
CAGAGGCC | -0.38
AACAATGC | 0.102
AGGTCCGG | 0.461
ACAGAACG | -0.0202
CTCCGCTA | 0.301
AAGTCCGC | 0.486
CGCCTGCC | -0.252
GCTACCGA | 0.0694
GCTCTCAC | -0.181
CCTCACCC | 0.0784
AAGCTCAT | -0.249
AGGATCCA | -0.00501
AACGCTAC | -0.026
